By IC50 is meant the dose at which the fit gives 50% viability; a fit beyond the top or the lowest dose is shown as a bound at that dose. For AUC the same curve is integrated over the 256-fold range of doses and scaled to a fraction; the more sensitive the line, the further below 1. For part of these data: A top dose marked as inferred was calculated from the reported fits.
Assays:
Experiment in all cases: Viability of human cancer cell lines after 72 h of drug (GDSC screen)
GW 441756 = compound: Cn1cc(/C=C2\C(=O)Nc3cccnc32)c2ccccc21 [GW 441756]; conditions: top dose 2 µM; top dose inferred
Experimental: (§1)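 Human cancer cell lines in 384-well plates, medium with 10% serum, drug for 72 h over a 256-fold dose range (nine 2-fold or five 4-fold steps up to the top dose). Adherent lines were fixed and stained with the nucleic acid dye Syto60, suspension lines read with resazurin; signal relative to control wells, capped at 0 and 100%. One two-parameter sigmoid per drug and line, fitted in a mixed model over all curves with the slope shared within a line.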

PIK-93 = compound: CC(=O)Nc1nc(C)c(-c2ccc(Cl)c(S(=O)(=O)NCCO)c2)s1 [PIK-93]; conditions: top dose 20 µM
Experimental: as §1

piperlongumine = compound: COc1cc(/C=C/C(=O)N2CCC=CC2=O)cc(OC)c1OC [piperlongumine]; conditions: top dose 10 µM
Experimental: as §1

GW843682X = compound: COc1cc2ncn(-c3cc(OCc4ccccc4C(F)(F)F)c(C(N)=O)s3)c2cc1OC [GW843682X]; conditions: top dose 0.256 µM
Experimental: as §1

ABT-263 = compound: CC1(C)CCC(c2ccc(Cl)cc2)=C(CN2CCN(c3ccc(C(=O)NS(=O)(=O)c4ccc(N[C@H](CCN5CCOCC5)CSc5ccccc5)c(S(=O)(=O)C(F)(F)F)c4)cc3)CC2)C1 [ABT-263]; conditions: top dose 2 µM; top dose inferred
Experimental: as §1

Salubrinal = compound: O=C(/C=C/c1ccccc1)NC(NC(=S)Nc1cccc2cccnc12)C(Cl)(Cl)Cl [Salubrinal]; conditions: top dose 16 µM; top dose inferred
Experimental: as §1

Cell Line	AUC (GW 441756)	IC50 (GW 441756)	AUC (PIK-93)	IC50 (PIK-93)	AUC (piperlongumine)	IC50 (piperlongumine)	AUC (GW843682X)	IC50 (GW843682X)	AUC (ABT-263)	IC50 (ABT-263)	AUC (Salubrinal)	IC50 (Salubrinal)
JJN-3 (haematopoietic neoplasm, suspension)	0.822	905 nM	0.589	2090 nM	0.679	1780 nM	0.448	11.9 nM	0.819	884 nM	0.889	12500 nM
OVCAR-4 (ovary, adherent)	0.938	> 2000 nM	0.784	13400 nM	0.777	6220 nM	0.624	41.5 nM	0.92	> 2000 nM	0.838	> 16000 nM
TE-1 (oesophagus, adherent)	0.937	> 2000 nM	0.969	> 20000 nM	0.706	2810 nM	0.505	16.5 nM	0.982	> 2000 nM	0.893	> 16000 nM
SF126 (glioma, adherent)	0.844	1550 nM	0.751	6910 nM	0.715	2630 nM	0.714	66.9 nM	0.934	> 2000 nM	0.914	> 16000 nM
NCI-H747 (large intestine, adherent)	0.982	> 2000 nM	0.757	8290 nM	0.832	8430 nM	0.689	61.6 nM	0.982	> 2000 nM	0.966	> 16000 nM
MDST8 (large intestine, adherent)	0.977	> 2000 nM	0.7	4530 nM	0.777	3970 nM	0.91	> 256 nM	0.59	219 nM	0.98	> 16000 nM
MOLP-8 (myeloma, suspension)	0.984	> 2000 nM	0.268	281 nM	0.655	1650 nM	0.706	59.5 nM	0.933	> 2000 nM	0.862	12800 nM
HC-1 (hairy cell leukaemia, suspension)	0.982	> 2000 nM	0.444	883 nM	0.756	3290 nM	0.413	9.34 nM	0.981	> 2000 nM	0.859	12500 nM
NCI-H69 (small cell lung carcinoma, suspension)	0.985	> 2000 nM	0.967	> 20000 nM	0.827	7100 nM	0.714	69.5 nM	0.578	209 nM	0.901	> 16000 nM
ARH-77 (myeloma, suspension)	0.988	> 2000 nM	0.548	1680 nM	0.785	4100 nM	0.632	36.4 nM	0.956	> 2000 nM	0.923	> 16000 nM
SNU-C1 (large intestine, suspension)	0.98	> 2000 nM	0.966	> 20000 nM	0.887	> 10000 nM	0.864	> 256 nM	0.793	1440 nM	0.957	> 16000 nM
ME-1 (acute myeloid leukaemia, suspension)	0.989	> 2000 nM	0.896	> 20000 nM	0.845	8030 nM	0.881	> 256 nM	0.413	71.1 nM	0.969	> 16000 nM
HOP-62 (lung adenocarcinoma, adherent)	0.932	> 2000 nM	0.886	> 20000 nM	0.714	2510 nM	0.503	16.3 nM	0.968	> 2000 nM	0.918	> 16000 nM
JVM-3 (lymphoid neoplasm, suspension)	0.977	> 2000 nM	0.814	11100 nM	0.711	2500 nM	0.956	> 256 nM	0.562	185 nM	0.986	> 16000 nM
IMR-5 (neuroblastoma, adherent)	0.991	> 2000 nM	0.821	9270 nM	0.811	4290 nM	0.54	20.2 nM	0.9	1840 nM	0.866	10700 nM
AMO-1 (haematopoietic neoplasm, suspension)	0.936	> 2000 nM	0.38	617 nM	0.769	3260 nM	0.485	14.7 nM	0.989	> 2000 nM	0.942	> 16000 nM
NB(TU)1-10 (neuroblastoma, adherent)	0.993	> 2000 nM	0.73	5060 nM	0.993	> 10000 nM	0.782	91.8 nM	0.871	1460 nM	0.905	> 16000 nM
HCC2218 (breast, suspension)	0.984	> 2000 nM	0.762	8920 nM	0.804	6610 nM	0.868	> 256 nM	0.98	> 2000 nM	0.833	14200 nM
NCI-H211 (small cell lung carcinoma, adherent)	0.979	> 2000 nM	0.603	2370 nM	0.823	5670 nM	0.462	12.6 nM	0.645	310 nM	0.907	> 16000 nM
NCI-H226 (lung squamous cell carcinoma, adherent)	0.916	> 2000 nM	0.812	11300 nM	0.865	9540 nM	0.971	> 256 nM	0.987	> 2000 nM	0.971	> 16000 nM
EC-GI-10 (oesophagus, adherent)	0.987	> 2000 nM	0.852	15300 nM	0.781	4100 nM	0.89	> 256 nM	0.986	> 2000 nM	0.979	> 16000 nM

Cell Line	AUC (GW 441756)	IC50 (GW 441756)	AUC (PIK-93)	IC50 (PIK-93)	AUC (piperlongumine)	IC50 (piperlongumine)	AUC (GW843682X)	IC50 (GW843682X)	AUC (ABT-263)	IC50 (ABT-263)	AUC (Salubrinal)	IC50 (Salubrinal)
SU-DHL-16 (B-cell lymphoma, suspension)	0.996	> 2000 nM	0.06	84.6 nM	0.865	5120 nM	0.618	30.8 nM	0.604	224 nM	0.798	5370 nM
REH (B-cell leukaemia, suspension)	0.987	> 2000 nM	0.452	930 nM	0.793	4360 nM	0.929	> 256 nM	0.46	97.8 nM	0.888	> 16000 nM
NCI-H209 (small cell lung carcinoma, suspension)	0.969	> 2000 nM	0.662	3660 nM	0.872	> 10000 nM	0.8	134 nM	0.409	69 nM	0.945	> 16000 nM
SF268 (glioma, adherent)	0.853	1750 nM	0.842	15600 nM	0.751	3520 nM	0.698	60.7 nM	0.97	> 2000 nM	0.958	> 16000 nM
697 (lymphoblastic leukaemia, suspension)	0.978	> 2000 nM	0.382	636 nM	0.662	1590 nM	0.424	10.4 nM	0.508	131 nM	0.64	2240 nM
DEL (lymphoid neoplasm, suspension)	0.991	> 2000 nM	0.711	4220 nM	0.763	2910 nM	0.546	20.8 nM	0.993	> 2000 nM	0.955	> 16000 nM
HDLM-2 (Hodgkin lymphoma, suspension)	0.904	> 2000 nM	0.979	> 20000 nM	0.835	6410 nM	0.714	63.6 nM	0.287	31.5 nM	0.769	5970 nM
CTV-1 (acute myeloid leukaemia, suspension)	0.923	> 2000 nM	0.621	2510 nM	0.84	5000 nM	0.418	9.98 nM	0.992	> 2000 nM	0.932	> 16000 nM
LXF-289 (lung adenocarcinoma, adherent)	0.919	> 2000 nM	0.938	> 20000 nM	0.779	4020 nM	0.478	13.9 nM	0.958	> 2000 nM	0.858	12800 nM
OCUB-M (breast, adherent)	0.985	> 2000 nM	0.605	2330 nM	0.709	2200 nM	0.446	11.6 nM	0.979	> 2000 nM	0.841	9000 nM
CW-2 (large intestine, adherent)	0.989	> 2000 nM	0.938	> 20000 nM	0.947	> 10000 nM	0.989	> 256 nM	0.977	> 2000 nM	0.989	> 16000 nM
NH-12 (neuroblastoma, adherent)	0.983	> 2000 nM	0.767	8310 nM	0.816	6390 nM	0.966	> 256 nM	0.491	117 nM	0.983	> 16000 nM
L-1236 (Hodgkin lymphoma, suspension)	0.951	> 2000 nM	0.751	5680 nM	0.828	4900 nM	0.942	> 256 nM	0.494	121 nM	0.92	> 16000 nM
NCI-H847 (small cell lung carcinoma, adherent)	0.922	> 2000 nM	0.551	1670 nM	0.812	4150 nM	0.472	13.6 nM	0.347	51.5 nM	0.975	> 16000 nM
TE-12 (oesophagus, suspension)	0.95	> 2000 nM	0.9	> 20000 nM	0.839	9090 nM	0.602	32.4 nM	0.954	> 2000 nM	0.846	15700 nM
NOMO-1 (acute myeloid leukaemia, suspension)	0.969	> 2000 nM	0.378	551 nM	0.757	3890 nM	0.835	201 nM	0.388	59 nM	0.84	13200 nM
WSU-NHL (lymphoid neoplasm, suspension)	0.977	> 2000 nM	0.641	2900 nM	0.788	3820 nM	0.99	> 256 nM	0.87	1490 nM	0.989	> 16000 nM
MOLM-13 (acute myeloid leukaemia, suspension)	0.834	1180 nM	0.288	330 nM	0.703	2240 nM	0.473	13.5 nM	0.769	710 nM	0.87	13300 nM
U-698-M (B-cell leukaemia, suspension)	0.986	> 2000 nM	0.635	2940 nM	0.739	3010 nM	0.969	> 256 nM	0.987	> 2000 nM	0.955	> 16000 nM
BE2-M17 (neuroblastoma, adherent)	0.944	> 2000 nM	0.952	> 20000 nM	0.789	4550 nM	0.524	18.6 nM	0.983	> 2000 nM	0.964	> 16000 nM
HAL-01 (lymphoblastic leukaemia, suspension)	0.97	> 2000 nM	0.194	179 nM	0.688	1960 nM	0.673	45.5 nM	0.358	53.4 nM	0.855	10500 nM
